The full ranking holds about 33,000 sequences; the median of “E-score (-0.5 to 0.5)” is about -0.021, and the highest 2% start at about 0.32. The list shows a part of the results.
Biological target: T1, Zap1 (UniProt P47043)
T1 sequence: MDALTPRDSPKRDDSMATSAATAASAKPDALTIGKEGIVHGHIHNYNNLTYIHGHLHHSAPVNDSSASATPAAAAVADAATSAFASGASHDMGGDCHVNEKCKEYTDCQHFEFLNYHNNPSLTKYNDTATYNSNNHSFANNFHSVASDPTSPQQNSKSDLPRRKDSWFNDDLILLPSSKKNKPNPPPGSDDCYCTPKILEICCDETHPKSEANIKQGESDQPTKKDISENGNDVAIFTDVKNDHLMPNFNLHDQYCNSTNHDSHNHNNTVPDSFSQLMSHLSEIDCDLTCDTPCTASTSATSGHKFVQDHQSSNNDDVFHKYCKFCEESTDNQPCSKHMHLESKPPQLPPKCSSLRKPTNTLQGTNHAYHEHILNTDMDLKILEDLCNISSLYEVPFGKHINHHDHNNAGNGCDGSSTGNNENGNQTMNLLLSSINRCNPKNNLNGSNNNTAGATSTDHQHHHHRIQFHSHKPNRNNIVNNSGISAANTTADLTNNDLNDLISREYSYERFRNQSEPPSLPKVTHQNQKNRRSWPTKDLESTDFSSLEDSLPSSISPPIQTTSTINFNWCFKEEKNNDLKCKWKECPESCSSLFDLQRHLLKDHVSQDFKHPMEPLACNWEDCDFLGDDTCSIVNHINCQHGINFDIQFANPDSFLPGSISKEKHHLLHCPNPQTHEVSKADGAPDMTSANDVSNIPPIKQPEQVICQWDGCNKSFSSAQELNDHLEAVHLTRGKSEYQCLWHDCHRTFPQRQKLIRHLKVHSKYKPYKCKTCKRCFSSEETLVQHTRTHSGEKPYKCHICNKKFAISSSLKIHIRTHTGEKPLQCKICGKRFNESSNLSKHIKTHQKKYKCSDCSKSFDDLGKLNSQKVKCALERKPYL
Assay: PBM E-score (8-mer binding enrichment) (E-score (-0.5 to 0.5)); higher = stronger / more preferred TF binding; most listed sequences are background and not binding sites
Details: protein concentration: 200 nM; construct: GST-full length
How it was run: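 E-scores (a modified Wilcoxon-Mann-Whitney statistic) were assigned by the Universal PBM Analysis Suite to every ungapped eight-base word pooled with its reverse complement. The input came from universal all-10-mer Agilent arrays made double-stranded by primer extension and probed with GST-tagged yeast transcription factors at about 100-200 nM. Fluorescent anti-GST detected bound protein, and masliner normalised the scans.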

Going from AAATGGGT to CAGTTGCC, the “PBM E-score” value falls from 0.265 to -0.139.

First: GAAACGCC
Second: AGTTTCGG
The “PBM E-score” value of the first is lower: -0.199 for the first, 0.145 for the second.

First: TGCAGCAA
Second: AGACAGGA
The “PBM E-score” value of the first is lower: 0.0389 for the first, 0.0939 for the second.

First: CCGGGGGA
Second: GAGGCATC
The “PBM E-score” value of the first is higher: -0.089 for the first, -0.275 for the second.

First: ATCGCTGC
Second: ATGCAATG
The “PBM E-score” value of the first is lower: -0.0832 for the first, -0.05 for the second.

Compared with ATGAGCCC, GCGTTGGA is lower in “PBM E-score” value: -0.192 for the first, -0.205 for the second.

Going from CCAGCCTC to CATTATAC, the “PBM E-score” value rises from -0.145 to 0.127.

First: CTCATTCA
Second: CTTAAGAA
The “PBM E-score” value of the first is lower: 0.0628 for the first, 0.0985 for the second.

Compared with AAACGGAC, GAGCCTGC is lower in “PBM E-score” value: -0.0663 for the first, -0.396 for the second.

First: CCAAGTCC
Second: TCATGTCA
The “PBM E-score” value of the first is lower: -0.131 for the first, 0.134 for the second.

Going from AAGGCGCC to TAAAGCCA, the “PBM E-score” value rises from -0.125 to 0.00455.

Compared with CTGGGATC, CAGAATAG is higher in “PBM E-score” value: -0.183 for the first, 0.106 for the second.

Going from ACGTCCTG to GCCCGGAA, the “PBM E-score” value rises from -0.251 to -0.0366.

Compared with CTAACATC, ACAAGGCT is lower in “PBM E-score” value: 0.0131 for the first, -0.249 for the second.

Going from CCACCGCG to TACGTCGA, the “PBM E-score” value falls from 0.0738 to -0.269.

Compared with TACTCCGA, AATCGTCC is lower in “PBM E-score” value: -0.0231 for the first, -0.191 for the second.

Compared with CCAGTGAG, CCTGTCCA is lower in “PBM E-score” value: -0.0795 for the first, -0.108 for the second.

First: ACATGGCT
Second: ATGGATTA
The “PBM E-score” value of the first is higher: -0.059 for the first, -0.103 for the second.

Compared with CCTCATAA, AGTTGGTG is lower in “PBM E-score” value: 0.168 for the first, -0.0307 for the second.

Compared with GCGGCGAC, CCACCGGA is higher in “PBM E-score” value: 0.00062 for the first, 0.038 for the second.

First: ACAACCAC
Second: ATCATTGC
The “PBM E-score” value of the first is higher: 0.361 for the first, -0.123 for the second.

Compared with CTTCGGAC, AGACAAGC is higher in “PBM E-score” value: -0.0446 for the first, -0.0265 for the second.

Compared with TGATACCA, AAATCGAC is higher in “PBM E-score” value: 0.0529 for the first, 0.108 for the second.

Going from GAGAGATC to AATTGGGT, the “PBM E-score” value rises from -0.0248 to 0.285.

First: TCGATGCA
Second: CGTAGCAC
The “PBM E-score” value of the first is lower: -0.26 for the first, -0.0744 for the second.

First: AAACGCTC
Second: CTGACGTC
The “PBM E-score” value of the first is lower: -0.162 for the first, -0.11 for the second.

Compared with ATCGCCCA, AGCCGGCG is higher in “PBM E-score” value: -0.169 for the first, 0.129 for the second.

First: ACACGACA
Second: GTAGAGCA
The “PBM E-score” value of the first is higher: 0.108 for the first, -0.0982 for the second.

First: TCCGTAAA
Second: CAGGCCGA
The “PBM E-score” value of the first is higher: 0.0502 for the first, -0.103 for the second.

First: CCCTCGGA
Second: ACAACGAT
The “PBM E-score” value of the first is higher: 0.273 for the first, -0.104 for the second.

Going from CTTCTCAC to CGACCCAG, the “PBM E-score” value rises from -0.17 to 0.0483.

First: TCTGACCA
Second: CCTCGCAC
The “PBM E-score” value of the first is higher: 0.214 for the first, -0.0237 for the second.

First: ACTCTGGG
Second: AGCGCTCG
The “PBM E-score” value of the first is higher: 0.00027 for the first, -0.252 for the second.

Going from CGATAACG to CATGCATC, the “PBM E-score” value rises from -0.174 to -0.0712.

Going from ACCAAAAT to ACCCCGGC, the “PBM E-score” value falls from 0.273 to 0.119.

First: ACCCCCCC
Second: CTCAAGTA
The “PBM E-score” value of the first is lower: -0.35 for the first, -0.0233 for the second.

First: AGGCCAGC
Second: GATAACGC
The “PBM E-score” value of the first is lower: -0.147 for the first, -0.11 for the second.

Compared with CAGATACA, TAGGTACA is lower in “PBM E-score” value: 0.0912 for the first, -0.0387 for the second.

First: CAACATCA
Second: CCTGCGGA
The “PBM E-score” value of the first is lower: -0.0421 for the first, 0.101 for the second.

First: CGCTGCCA
Second: CCACGATC
The “PBM E-score” value of the first is lower: -0.309 for the first, 0.209 for the second.

First: GTCTTTGA
Second: AGCAGACG
The “PBM E-score” value of the first is higher: -0.0575 for the first, -0.286 for the second.

Compared with ACGTTTAT, GATGAGGA is lower in “PBM E-score” value: 0.0998 for the first, 0.0131 for the second.

Going from GGATTGAA to ATTCGAGC, the “PBM E-score” value falls from 0.00501 to -0.169.
